Laboratory results taken from PubChem BioAssay AID1508624 (National Center for Advancing Translational Sciences (NCATS), 2021).
The whole screen tested about 48,000 compounds, of which about 120 (0.25%) were called active. Another 4% or so got no clear call; they are omitted. The call rests on the fitted dose curve; in most records, active means well fitted activation curve with a large enough effect; inconclusive means small, poorly fitted or top-dose-only effect, or another doubt; inactive means no such curve, though single readings can be large or run the other way. The list shows a part of the results.

experiment: Primary qHTS for Identification of Small Molecule Activators of Huntingtin-Antisense Promoter Activity; conditions: HEK293 HTT-AS promoter firefly luciferase reporter, 24 h; series mostly up to 57.5 µM; activity change, positive = activation: at the top concentration; further: nearly all actives have a fitted effect of over 55% in size
In short: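 HEK293 luciferase promoter-reporter cells (2,500/well) plated 24 h, then compounds added at up to 57.5 uM final for 24 h at 37 °C. Firefly luminescence by Dual-Glo, normalized to vehicle (0%) and zero RLU (-100%).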

Activity change, positive = activation, inactive:
COc1ccc(C(=O)Nc2ccc3nc(SCC(=O)N4CCc5ccccc54)sc3c2)cc1 -16.7%, COc1ccc(NC(=O)CCNS(=O)(=O)c2ccc3c(c2)CCCC(=O)N3)cc1Cl -21.3%, O=C(NCc1ccc(Cl)cc1)NCc1noc2ccccc12 18.8%, COc1ccc(CNC(=O)c2cc3c(=O)n(Cc4cccnc4)ccc3nc2C)cc1 -14.5%, COc1ccccc1CNC(=O)c1cc2c(=O)oc3ccc(C)cc3c2s1 19.8%, COc1ccccc1CCNC(=O)Cc1ccc(NC(=O)N2CCSc3ncccc32)cc1 -20.2%, CCCNS(=O)(=O)c1cc(-c2nn3c(C)nnc3c3ccccc23)ccc1C -20.5%, Cc1ccc(-n2c(=O)c3c4c(sc3n(Cc3cc(=O)n5cc(Cl)ccc5n3)c2=O)CCC4)cc1C 13.4%, CCOC(=O)c1ccccc1NC(=O)CN(c1cccc(C)c1C)S(=O)(=O)c1ccccc1 -29.4%, CCc1ccc(-c2nn(CC(=O)NC3CCCCC3)c3c2cnc2ccc(F)cc23)cc1 7.59%, CC(=O)N1CCCc2cc(S(=O)(=O)N3CCCC(C(=O)NCc4ccccc4Cl)C3)ccc21 (stereo unspecified) -32.2%, CCOc1ccccc1NC(=O)C1CCN(S(=O)(=O)c2ccc3[nH]c(=O)oc3c2)CC1 -21.6%, CC1CCc2c(cc(-c3ccccc3)n2-c2ccc(C(=O)NC(C)C)cc2)C1 (stereo unspecified) -38.3%, CCc1cccc(OCC(=O)Nc2ccc(S(=O)(=O)Nc3ncccn3)cc2)c1 -1.91%, CC(C)(C)c1ccc(OCc2nc3ccccc3n2CCOc2ccccc2)cc1 36.8%, Cc1cccc(C)c1OCc1nc2c3cnn(-c4ccccc4F)c3ncn2n1 -4.96%, COc1cccc(NC(=O)CSc2nc3c([nH]c4ccccc43)c(=O)n2-c2cc(C)cc(C)c2)c1 -21.8%, CC(=O)c1ccc(S(=O)(=O)N2CCn3cccc3C2c2ccccc2F)cc1 (stereo unspecified) -25%, Cc1cc(C)cc(NC(=O)Cc2csc(C)n2)c1 -11.9%, CCSc1ncc(Cl)c(C(=O)Nc2nnc(CC)s2)n1 3.64%, O=C(c1ccccc1F)N1c2ncnn2C2(CCCCC2)[C@@H]2CCCC[C@@H]21 -6.76%, Cc1cccc(Nc2nc(N)nc(N)c2S(=O)(=O)c2ccccc2)c1 -17.9%, CCC(C(=O)NCCc1ccccc1)n1nc(C)c2sc3ccccc3c2c1=O (stereo unspecified) -17.2%, COc1ccc(C2=C(C)C(N3CCC(C(=O)Nc4ccccc4F)CC3)=NS2(=O)=O)cc1 -7.23%, Cc1c(C)n(Cc2ccc(F)cc2)c2ccc(C(=O)N3CCN(c4ccc(F)cc4)CC3)cc12 -21.9%, O=C(C1CCN(c2ncnc3c2nc2n3CCCCC2)CC1)N1CCN(c2ccccc2F)CC1 -38.5%, CCOc1ccc2oc(=O)cc(CN3CCN(C(=O)c4ccc(OC)c(OC)c4)CC3)c2c1 -16.7%, Cc1ccc(N2C(=O)c3n[nH]c(C)c3C2c2ccc(Cl)cc2)cc1 (stereo unspecified) 21.2%, CCOC(=O)c1[nH]c2c(c1Cc1ccccc1OC)C(=O)CC(c1ccc(OC)cc1)C2 (stereo unspecified) -26.7%, CCc1ccc(-n2c(=O)c3c4c(sc3n(Cc3cc(=O)n5c(C)cccc5n3)c2=O)CCC4)cc1 -13.6%, Cc1ccc(CNC(=O)c2nn(-c3ccc(Cl)cc3)nc2CO)cc1 -19.3%, Cc1ccccc1CSc1nnc2[nH]c(=O)cc(-c3ccccc3)n12 0.291%, CCOC(=O)c1ccccc1NC(=O)Cn1ncc2c1-c1ccccc1OC2 -24.5%, Cc1cc(C)cc(NC(=O)CSc2oc(-c3ccccc3)nc2S(=O)(=O)c2ccc(Cl)cc2)c1 -11.2%, Cc1ccc(NC(=O)Cn2nc(C(F)(F)F)c3c2CCCC3)cc1C -17.9%, N=C1N=C(N)c2cc3ccccc3cc21 -70.6% [at 116 µM, percent change from vehicle, -100% = no light], CCc1ccccc1NS(=O)(=O)c1ccc2nc(-c3ccccc3)[nH]c2c1 -37.2%, CC(C)OCCCNC(=O)C(=O)Nc1c2c(nn1-c1ccccc1)CS(=O)(=O)C2 -9.19%, CC(=O)NC(CS)C(=O)O (stereo unspecified) -8.5%, Cc1ccc2c(c1)N(CC(=O)NCCc1ccccc1)C(=O)CO2 -20.5%, COc1ccc(-c2nc3ccccc3n3c(-c4cccc(C)c4)c4c(=O)n(C)c(=O)n(C)c4c23)cc1OC -36.7%, CCC(C)NC(=O)c1c(C)oc2ncn(CC(C)C)c(=O)c12 (stereo unspecified) -4.93%, O=C(CCS(=O)(=O)c1cc(Br)cc2c1N(C(=O)C1CC1)CC2)N1CCN(c2cccc(Cl)c2)CC1 -8.77%, CCOc1ccccc1OCC1CNCCO1 (stereo unspecified) -3.87%, O=C(Cn1c(=O)n(CCc2ccccc2)c(=O)c2cccnc21)Nc1ccc(F)cc1 -11.7%, CCCCNC(=O)C1CCC(Cn2c(=O)c3sccc3n(Cc3ccccc3)c2=O)CC1 (stereo unspecified) -9.29%, CCC(=O)N1CCc2cc(S(=O)(=O)NC(C(=O)NCCc3ccc(OC)c(OC)c3)C(C)C)ccc21 (stereo unspecified) 4.47%, Cc1cc(C)c(NC(=O)c2nc3ccccc3nc2N2CCCCC2)c(C)c1 4.94%, CCCCNC(=O)CSc1nc2cc3c(cc2c(=O)n1CCCC(=O)NCCc1ccc(OC)c(OC)c1)OCO3 -13%, CC1=C(C(=O)OC2CCCC2)C(c2c(Cl)cccc2Cl)CC(=O)N1 (stereo unspecified) -33.4%, COc1cc(NC(=O)C2CCN(C(=O)c3sc4nc[nH]c(=O)c4c3C)CC2)cc(OC)c1OC 0.883%, CCCn1c(CCC(=O)Nc2cc(C(=O)OC)cc(C(=O)OC)c2)nc2cccnc21 -18.5%, COC(=O)c1scc(-c2ccc(C)cc2)c1S(=O)(=O)Nc1cc(Cl)c(OC)cc1OC -19.6%, CCCCOc1ccc(Cn2c(=O)sc3ccccc32)cc1OC -18.9%, CCCn1c(CCC(=O)Nc2cc(OC)cc(OC)c2)nc2cccnc21 -8.69%, CCOC(=O)c1[nH]cnc1C(=O)Nc1cccc(OC)c1 -12.1%, C[C@H]1COC2=C1C(=O)C(=O)c1c2ccc2c1CCCC2(C)C -21.4%, N#CC1(c2cccc(C(=O)Nc3cc(Oc4ccc5nc(NC(=O)C6CC6)sc5n4)ccc3F)c2Cl)CC1 -4.46%, Cc1cc(NC(=O)CCn2c(=O)c3cccn3c3cccnc32)ccc1Br -2.34%, NC(=O)Cc1cccc(C(=O)c2ccccc2)c1N, CCC(=O)N1c2ccccc2CC1C(=O)NCCc1cc(OC)c(OC)c(OC)c1 (stereo unspecified) -6.44%, CCCN1CCN(c2nnc(-n3cccc3C(=O)Nc3cc(Cl)ccc3C)s2)CC1 -19.1%, CCSc1ncc(Cl)c(C(=O)Nc2nc3ccc(S(C)(=O)=O)cc3s2)n1 -17.5%, Cc1ccc(NC(=O)C2CCCN(S(=O)(=O)c3cccc4nsnc34)C2)cc1C (stereo unspecified) -17.9%, COc1ccc(-n2c(=O)c3sc4ccccc4c3n(C)c2=O)cc1 -3.3%, Cc1ccc(C)c(Cn2c(=O)n(CCCCC(=O)NCc3ccc4c(c3)OCO4)c(=O)c3ccccc32)c1 -20.4%, CCCCn1cc(S(=O)(=O)c2cc(C)ccc2C)c(=O)c2cc(F)c(N3CCC(C)CC3)cc21 -1.8%, CCOC(=O)c1c(C)[nH]c(C)c1S(=O)(=O)N1CCC(C(=O)Nc2ccc(OCC)cc2)CC1 -2.17%, CC(C)OCCCNc1ncnc2sc3c(c12)CCCC3 -39%, CCc1cccc(NC(=O)CN(c2ccc(C)c(C)c2)S(=O)(=O)c2ccsc2C(=O)OC)c1 -19.5%, Cc1ccc(C)c(N2CCN(C(=O)CN3C(=O)COc4ccc(S(=O)(=O)N5CCCC5)cc43)CC2)c1 -9.28%, COc1ccc(C(=O)NCC(c2ccco2)S(=O)(=O)c2ccc(F)cc2)cc1 (stereo unspecified) -11.1%, CN(C)CC[C@H](CSc1ccccc1)Nc1ccc(S(=O)(=O)NC(=O)c2ccc(N3CCN(Cc4ccccc4-c4ccc(Cl)cc4)CC3)cc2)cc1[N+](=O)[O-] -12.5%, CCCCN(CCCC)CCCNC(=O)Cn1cc2c(n1)-c1c(oc(C(=O)N3CCCC3)c1C)CC2 -3.27%, CCOC(=O)c1ccc(N2C(=O)c3[nH]nc(-c4ccc(C)cc4)c3C2c2cccs2)cc1 (stereo unspecified) -43.5%, CSc1ncc(C(=O)Nc2ccccc2C(F)(F)F)c(-c2ccccc2)n1 -6.13%, CCCc1nc2nc(C)c(NS(=O)(=O)c3ccc(CC(C)C)cc3)c(=O)n2[nH]1 -10.6%, O=S(=O)(c1ccc(Cl)cc1)c1nc(-c2cccs2)oc1SCc1ccc(F)cc1 -11.5%, COc1cccc(CNC(=O)Cc2c(C)c3c(cc(C)c4c(C)c(C)oc43)oc2=O)c1 -1.17%, Cn1nnc2c(NCc3ccc(Cl)cc3)ncnc21 -16.2%, COc1ccc(OC)c(NC(=O)C2Cc3ccccc3CN2S(=O)(=O)c2ccc(F)cc2)c1 (stereo unspecified) -31%, CC1=C(C(=O)Nc2ccc(Cl)cc2)C(c2ccccc2F)n2nc(SCc3cccc(Cl)c3)nc2N1 (stereo unspecified) -4.17%, O=C(Nc1nc2ccccc2n1CCN1CCOCC1)c1cccc([N+](=O)[O-])c1 10.1%, CCc1ccc(CNC(=O)c2cc3n(n2)CCCN(Cc2ccccc2)C3=O)cc1 -23.2%, Cc1ccc(Cn2c(=O)n(CCc3ccc(Cl)cc3)c(=O)c3ccccc32)cc1 2.92%, Cc1ccc(-n2ncc3c(NC(C)c4ccccc4)ncnc32)cc1 (stereo unspecified) 11%, COc1ccc(NC(=O)Cn2c(=O)n(Cc3ccccc3OC)c(=O)c3cccnc32)cc1Cl -15.4%, CCOC(=O)Cc1ccc(NC(=O)N2CCSc3ccccc32)cc1 -4.92%, Cc1ccc(-c2nc(CS(=O)CC(=O)NCc3ccccc3Cl)c(C)o2)cc1 (stereo unspecified) -11%, COCCNC(=O)C1CCN(C(=O)c2cc3sccc3n2Cc2ccc(Cl)cc2)CC1 -50.5%, CCCN(CCC)CCCNC(=O)C1CCCN(Cc2nc(-c3ccc(Cl)cc3)oc2C)C1 (stereo unspecified) -26.5%, COc1ccccc1NC(=O)CSC1=Nc2ccccc2C2=NC(CCC(=O)NCc3ccco3)C(=O)N12 (stereo unspecified) -10.5%, O=c1ccc2cc(S(=O)(=O)Nc3ccc(F)c(Cl)c3)ccc2[nH]1 -18.2%, CCOc1ccc2nc(SCC(=O)Nc3ccc(F)cc3)nc(-c3ccccc3)c2c1 -1.76%, O=C(CCSCc1cccc(Cl)c1)N1CCN(c2ccc(Cl)cc2)CC1 -10.3%, Cc1ccccc1C(=O)N1CC(=O)Nc2ccc(Cl)cc2C1c1ccccc1 (stereo unspecified) -11.9%
